According to PubChem BioAssay (NCI):
Several values for one entry are separate records, joined by “and”; a condition that tells them apart may be missing. Equal entries are not always repeated.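 Where inhibition never reached the appropriate level, the endpoint shown equals the highest concentration tested. Otherwise, values were interpolated linearly from a five-concentration, 48-hour dose response in 96-well plates. Abbreviation: GI50, concentration required for 50% inhibition of growth. TGI: total growth inhibition.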

Tested on: NCI-H322M lung
Experiment: DTP human tumour cell line panel, 48 h

Question: How did the TGI turn out when `COc1cc(C2SCC(=O)N2NC(=O)c2ccc(NC(C)=O)cc2)cc(OC)c1OC` (stereo not drawn) was run?
Answer: The TGI was over 100 µM.

Question: Which TGI does the source give for `c1ccc(C2=NN3CN(N2)c2ccccc2OCCCOc2ccccc23)cc1` here?
Answer: Its TGI is over 100 µM.

Question: How did the TGI turn out when `COc1ccc(C(=O)Cc2cc(OC)ccc2OC)cc1` was run?
Answer: The TGI was over 100 µM.

Question: Which TGI does the source give for `Cc1cc(S(=O)(=O)Nc2n[nH]c(Nc3ccccc3)n2)c(S)cc1Cl` here?
Answer: The TGI was over 10 µM.

Question: Which TGI does the source give for `O=C(OCc1ccccc1CN1CCOCC1)c1ccc(Br)cc1` here?
Answer: Its TGI is over 100 µM.

Question: With `CC(=O)Oc1ccc2cc(Oc3ccc(Cl)cc3)c(=O)oc2c1` as the molecule, how does the TGI read?
Answer: Its TGI is over 100 µM.

Question: `CC(C)=CC(=O)O[C@@H]1CC(C)(C)CC2C3=CCC4[C@]56CC[C@](O)(OC5)C(C)(C)C6CC[C@@]4(C)C3(C)CC[C@]21C(=O)O` (stereo partly drawn) was tested. Which TGI did it give?
Answer: Its TGI is over 100 µM.

Question: How did the TGI turn out when `O=C1c2ccccc2-c2ccc(NC(=O)C3CCCCC3C(=O)O)cc21` (stereo not drawn) was run?
Answer: Its TGI is over 100 µM.

Question: With `Cc1ccc(Nc2nc(=O)[nH]c(=O)[nH]2)cc1N` as the molecule, how does the TGI read?
Answer: Its TGI is over 100 µM.

Question: For `O=[N+]([O-])c1ccc2nc3ccc([N+](=O)[O-])cn3c2c1`, which TGI is on record?
Answer: Its TGI is over 100 µM.

Question: For `CC1=C(C#N)C(N)=C2C(C)=C(C#N)C(N)=C12`, which TGI is on record?
Answer: Its TGI is over 100 µM.

Question: Which TGI does the source give for `CN(C)c1ccc(/C=C(\NC(=O)c2ccccc2)C(=O)Nc2ccccc2C(=O)NN2C(=O)CSC2c2ccc(N(C)C)cc2)cc1` (stereo not drawn) here?
Answer: Its TGI is over 100 µM.

Question: For `Cc1nc2c(n1Cc1ccc(Cl)cc1)C(=O)c1ccccc1C2=O`, which TGI is on record?
Answer: The TGI was over 75 µM.

Question: With `COc1ccccc1C(=O)c1cnc(NC2CCN(S(C)(=O)=O)CC2)nc1N` as the molecule, how does the GI50 read?
Answer: The GI50 was 9.41 µM.

Question: And the TGI?
Answer: Its TGI is over 25 µM.

Question: How did the TGI turn out when `CCOP(=O)(OCC)/C(C#N)=C\c1cccc2ccccc12` was run?
Answer: The TGI was over 100 µM.

Question: `Oc1ccc2ccccc2c1-c1nnc(CCCCCCCCc2nnc(-c3c(O)ccc4ccccc34)o2)o1` was tested. Which GI50 did it give?
Answer: Its GI50 is 1.17 µM.

Question: And the TGI?
Answer: The TGI was 14.2 µM and > 81.4 µM.

Question: How did the GI50 turn out when `CC[C@]12C=CCN3CC[C@]4(C(=C(C(=O)OC)C1)Nc1cc(O)ccc14)[C@@H]32` was run?
Answer: Its GI50 is 18.1 µM.

Question: What about the TGI of the same molecule?
Answer: Its TGI is 46.7 µM.

Question: How did the TGI turn out when `COc1ccc2cccc(C(=N)c3ccc(C)c4c3CCC4)c2c1` was run?
Answer: Its TGI is 24.5 µM.

Question: How did the TGI turn out when `C/C(=N\N(C)C)C(CN(C)C)C(c1ccccc1)c1c(O)c2ccccc2oc1=O` (stereo not drawn) was run?
Answer: Its TGI is over 100 µM.

Question: For `N#Cc1c2c(c(N=[N+]=[N-])n3c1nc1ccccc13)CCCC2`, which TGI is on record?
Answer: Its TGI is 25.7 µM.

Question: How did the TGI turn out when `CC1(C)OC[C@@H](/C=C\CCO[Si](c2ccccc2)(c2ccccc2)C(C)(C)C)N1C(=O)c1ccccc1` was run?
Answer: Its TGI is over 100 µM.

Question: Which results are given for `C/C(=C(/c1ccc(O)cc1)c1ccc(OCCN2CCCC2)cc1)c1ccccc1`?
Answer: GI50: 5.12 µM; TGI: 18.6 µM

Question: With `O=C1c2cc3c(cc2CC12Cc1cc4c(cc1C2)CCC4)CCC3` as the molecule, how does the TGI read?
Answer: Its TGI is over 100 µM.

Question: `CCCCn1cc(C(=O)O)c(=O)c2c3sccc3ccc21` was tested. Which TGI did it give?
Answer: Its TGI is over 100 µM.

Question: `Cc1ccc(C2=Nc3c(N)ncnc3NC(c3cccc(Nc4ccnc5cc(C(F)(F)F)ccc45)c3)C2)cc1` (stereo not drawn) was tested. Which GI50 did it give?
Answer: Its GI50 is 5.21 µM.

Question: And the TGI?
Answer: Its TGI is over 100 µM.

Question: `O=C(Oc1c(I)ccccc1=O)c1ccc([N+](=O)[O-])cc1` was tested. Which TGI did it give?
Answer: Its TGI is over 100 µM.

Question: For `COc1ccc2nc3ccc(OC)cc3c(SCCCN)c2c1`, which GI50 is on record?
Answer: The GI50 was 13.3 µM.

Question: And the TGI?
Answer: Its TGI is 27.6 µM.

Question: Which TGI does the source give for `Oc1ccc(-c2c3c(nc4c2CCc2ccc(Br)cc2-4)-c2cc(Br)ccc2CC3)cc1` here?
Answer: The TGI was 34.4 µM.

Question: How did the TGI turn out when `CCOC(=O)c1c2c(n(C)c1-c1ccccc1)C(=O)C(C)=CC2=O` was run?
Answer: Its TGI is 30.1 µM.

Question: Which TGI does the source give for `Cc1cc(N(CCC#N)S(=O)(=O)c2ccccc2)ccc1C=O` here?
Answer: The TGI was over 100 µM.

Question: For `O=c1c(Cc2ccc(Cl)cc2)nnc2sc(-c3ccc([N+](=O)[O-])cc3)nn12`, which TGI is on record?
Answer: The TGI was over 100 µM.

Question: `NC(N)=N/N=C(\c1ccc(Cl)cc1)C1CC1` was tested. Which TGI did it give?
Answer: The TGI was 67.7 µM.
